# Results reported in the supplement of paper PMC8728848.
# This is one part of the list.
# Experiments:
# Assay in all cases: glycan array binding signal (z-score within array); higher = stronger binding
# Details in all cases: glycan notation: IUPAC condensed, linker removed
# [1] = target: Gal(a1-3)[Gal(a1-4)]Gal(b1-4)GlcNAc
# In short: (§1)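 The Consortium for Functional Glycomics database supplied 3228 glycan arrays, of which those lacking an available protein sequence were dropped. The binding signal, a within-array Z-score, was averaged across arrays of the same protein sequence and across linkers. Negative scores can be read as non-binding.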
# [2] = target: Gal(a1-4)Gal(b1-3)GlcNAc(b1-2)Man(a1-3)[Gal(a1-4)Gal(b1-3)GlcNAc(b1-2)Man(a1-6)]Man(b1-4)GlcNAc(b1-4)GlcNAc
# In short: as §1
# Gal(a1-4)Gal(b1-4)Glc = target: Gal(a1-4)Gal(b1-4)Glc
# In short: as §1
# Gal(a1-4)Gal(b1-4)GlcNAc = target: Gal(a1-4)Gal(b1-4)GlcNAc
# In short: as §1
# [3] = target: Gal(a1-4)Gal(b1-4)GlcNAc(b1-2)Man(a1-3)[Gal(a1-4)Gal(b1-4)GlcNAc(b1-2)Man(a1-6)]Man(b1-4)GlcNAc(b1-4)GlcNAc
# In short: as §1
# [4] = target: Gal(a1-4)Gal(b1-4)GlcNAc(b1-3)Gal(b1-4)Glc
# In short: as §1
# Gal(a1-4)GlcNAc = target: Gal(a1-4)GlcNAc
# In short: as §1
# Gal(a1-6)Glc = target: Gal(a1-6)Glc
# In short: as §1
# Gal(b1-2)Gal = target: Gal(b1-2)Gal
# In short: as §1
# Gal(b1-3)Gal = target: Gal(b1-3)Gal
# In short: as §1
# Gal(b1-3)Gal(b1-4)GlcNAc = target: Gal(b1-3)Gal(b1-4)GlcNAc
# In short: as §1
# Gal(b1-3)GalNAc = target: Gal(b1-3)GalNAc
# In short: as §1
# [5] = target: Gal(b1-3)GalNAc(a1-3)[Fuc(a1-2)]Gal(b1-4)Glc
# In short: as §1
# [6] = target: Gal(b1-3)GalNAc(a1-3)[Fuc(a1-2)]Gal(b1-4)GlcNAc
# In short: as §1
# Gal(b1-3)GalNAc(b1-3)Gal = target: Gal(b1-3)GalNAc(b1-3)Gal
# In short: as §1
# [7] = target: Gal(b1-3)GalNAc(b1-3)Gal(a1-4)Gal(b1-4)Glc
# In short: as §1
# [8] = target: Gal(b1-3)GalNAc(b1-4)Gal(b1-4)Glc
# In short: as §1
# [9] = target: Gal(b1-3)GalNAc(b1-4)[Neu5Ac(a2-3)]Gal(b1-4)Glc
# In short: as §1
# Gal(b1-3)GlcNAc = target: Gal(b1-3)GlcNAc
# In short: as §1
# [10] = target: Gal(b1-3)GlcNAc(a1-3)Gal(b1-4)GlcNAc
# In short: as §1
# [11] = target: Gal(b1-3)GlcNAc(a1-6)Gal(b1-4)GlcNAc
# In short: as §1
# Gal(b1-3)GlcNAc(b1-2)Man = target: Gal(b1-3)GlcNAc(b1-2)Man
# In short: as §1
# [12] = target: Gal(b1-3)GlcNAc(b1-2)Man(a1-3)[Gal(b1-3)GlcNAc(b1-2)Man(a1-6)]Man(b1-4)GlcNAc(b1-4)GlcNAc
# In short: as §1
# [13] = target: Gal(b1-3)GlcNAc(b1-2)Man(a1-3)[Gal(b1-3)GlcNAc(b1-2)Man(a1-6)]Man(b1-4)GlcNAc(b1-4)[Fuc(a1-6)]GlcNAc
# In short: as §1
# [14] = target: Gal(b1-3)GlcNAc(b1-2)Man(a1-3)[GlcNAc(b1-4)][Gal(b1-3)GlcNAc(b1-2)Man(a1-6)]Man(b1-4)GlcNAc(b1-4)GlcNAc
# In short: as §1
# [15] = target: Gal(b1-3)GlcNAc(b1-2)[Gal(b1-3)GlcNAc(b1-6)]Man(a1-6)[Gal(b1-3)GlcNAc(b1-2)Man(a1-3)]Man(b1-4)GlcNAc(b1-4)GlcNAc
# In short: as §1
# [16] = target: Gal(b1-3)GlcNAc(b1-3)Gal(b1-3)GlcNAc
# In short: as §1
# [17] = target: Gal(b1-3)GlcNAc(b1-3)Gal(b1-4)Glc
# In short: as §1
# [18] = target: Gal(b1-3)GlcNAc(b1-3)Gal(b1-4)GlcNAc
# In short: as §1
# [19] = target: Gal(b1-3)GlcNAc(b1-3)Gal(b1-4)GlcNAc(b1-2)Man(a1-3)[Gal(b1-3)GlcNAc(b1-3)Gal(b1-4)GlcNAc(b1-2)Man(a1-6)]Man(b1-4)GlcNAc(b1-4)GlcNAc
# In short: as §1
# [20] = target: Gal(b1-3)GlcNAc(b1-3)Gal(b1-4)GlcNAc(b1-2)[Gal(b1-3)GlcNAc(b1-3)Gal(b1-4)GlcNAc(b1-6)]Man(a1-6)[Gal(b1-3)GlcNAc(b1-3)Gal(b1-4)GlcNAc(b1-2)Man(a1-3)]Man(b1-4)GlcNAc(b1-4)[Fuc(a1-6)]GlcNAc
# In short: as §1
# [21] = target: Gal(b1-3)GlcNAc(b1-3)Gal(b1-4)GlcNAc(b1-3)Gal(b1-4)GlcNAc(b1-2)[Gal(b1-3)GlcNAc(b1-3)Gal(b1-4)GlcNAc(b1-3)Gal(b1-4)GlcNAc(b1-6)]Man(a1-6)[Gal(b1-3)GlcNAc(b1-3)Gal(b1-4)GlcNAc(b1-3)Gal(b1-4)GlcNAc(b1-2)Man(a1-3)]Man(b1-4)GlcNAc(b1-4)[Fuc(a1-6)]GlcNAc
# In short: as §1
# [22] = target: Gal(b1-3)GlcNAc(b1-3)Gal(b1-4)GlcNAc(b1-6)[Gal(b1-3)GlcNAc(b1-3)]Gal(b1-4)Glc
# In short: as §1
# [23] = target: Gal(b1-3)GlcNAc(b1-3)Gal(b1-4)[Fuc(a1-3)]GlcNAc
# In short: as §1
# [24] = target: Gal(b1-3)GlcNAc(b1-3)Gal(b1-4)[Fuc(a1-3)]GlcNAc(b1-6)[Gal(b1-3)GlcNAc(b1-3)]Gal(b1-4)Glc
# In short: as §1
# [25] = target: Gal(b1-3)GlcNAc(b1-3)GalNAc
# In short: as §1
# [26] = target: Gal(b1-3)GlcNAc(b1-6)Gal(b1-4)GlcNAc
# In short: as §1
# [27] = target: Gal(b1-3)GlcNAc(b1-6)GalNAc
# In short: as §1
binder,measurement,setting,value
SBD-G4S3-Fc (protein) MASIPSSASVQLDSYNYDGSTFSGKIYVKNIAYSKKVTVVYADGSDNWNNNGNIIAASFSGPISGSNYEYWTFSASVKGIKEFYIKYEVSGKTYYDNNNSANYQVSTGGGGSGGGGSGGGGSEFVPRDCGCKPCICTVPEVSSVFIFPPKPKDVLTITLTPKVTCVVVDISKDDPEVQFSWFVDDVEVHTAQTQPREEQFNSTFRSVSELPIMHQDWLNGKEFKCRVNSAAFPAPIEKTISKTKGRPKAPQVYTIPPPKEQMAKDKVSLTCMITDFFPEDITVEWQWNGQPAENYKNTQPIMDTDGSYFVYSKLNVQKSNWEAGNTFTCSVLHEGLHNHHTEKSLSHSPGAA,glycan array binding signal (z-score),[1],1.33
same,glycan array binding signal (z-score),[2],0.138
same,glycan array binding signal (z-score),Gal(a1-4)Gal(b1-4)Glc,-0.152
same,glycan array binding signal (z-score),Gal(a1-4)Gal(b1-4)GlcNAc,-0.025
same,glycan array binding signal (z-score),[3],-0.275
same,glycan array binding signal (z-score),[4],-0.16
same,glycan array binding signal (z-score),Gal(a1-4)GlcNAc,-0.439
same,glycan array binding signal (z-score),Gal(a1-6)Glc,-0.327
same,glycan array binding signal (z-score),Gal(b1-2)Gal,0.291
same,glycan array binding signal (z-score),Gal(b1-3)Gal,-0.276
same,glycan array binding signal (z-score),Gal(b1-3)Gal(b1-4)GlcNAc,-0.202
same,glycan array binding signal (z-score),Gal(b1-3)GalNAc,-0.13
same,glycan array binding signal (z-score),[5],-0.267
same,glycan array binding signal (z-score),[6],0.022
same,glycan array binding signal (z-score),Gal(b1-3)GalNAc(b1-3)Gal,-0.363
same,glycan array binding signal (z-score),[7],0.103
same,glycan array binding signal (z-score),[8],-0.152
same,glycan array binding signal (z-score),[9],-0.236
same,glycan array binding signal (z-score),Gal(b1-3)GlcNAc,-0.27
same,glycan array binding signal (z-score),[10],-0.19
same,glycan array binding signal (z-score),[11],-0.271
same,glycan array binding signal (z-score),Gal(b1-3)GlcNAc(b1-2)Man,-0.388
same,glycan array binding signal (z-score),[12],0.047
same,glycan array binding signal (z-score),[13],-0.008
same,glycan array binding signal (z-score),[14],0.071
same,glycan array binding signal (z-score),[15],-0.089
same,glycan array binding signal (z-score),[16],-0.181
same,glycan array binding signal (z-score),[17],-0.347
same,glycan array binding signal (z-score),[18],-0.299
same,glycan array binding signal (z-score),[19],-0.326
same,glycan array binding signal (z-score),[20],0.616
same,glycan array binding signal (z-score),[21],0.263
same,glycan array binding signal (z-score),[22],-0.501
same,glycan array binding signal (z-score),[23],-0.101
same,glycan array binding signal (z-score),[24],-0.196
same,glycan array binding signal (z-score),[25],-0.41
same,glycan array binding signal (z-score),[26],-0.401
same,glycan array binding signal (z-score),[27],-0.443
